The other results are listed elsewhere or left out. Many values rest on one well or one pass, so single values are uncertain.
Tested on: WM1716
Test: cell count relative to DMSO control; melanoma cells; higher = more viable cells
Settings: library dose: low library concentration; 72 h
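Note: cell number obtained by counting DAPI-stained nuclei in high-throughput microscope images with image analysis software, screen run in 1,536-well plates.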

| Structure (SMILES) | cell count |
| --- | --- |
| C#Cc1cccc(Nc2ncnc3cc(OCCOC)c(OCCOC)cc23)c1 [erlotinib] + COCC[n+]1c2c(n(Cc3cnccn3)c1C)C(=O)c1ccccc1C2=O [YM155] (first compound 0.8 µM, partner dose 0.0004 µM) | 80% |
| C#Cc1cccc(Nc2ncnc3cc(OCCOC)c(OCCOC)cc23)c1 [erlotinib] + Cc1nc(Nc2ncc(C(=O)Nc3c(C)cccc3Cl)s2)cc(N2CCN(CCO)CC2)n1 [dasatanib] (first compound 0.8 µM, partner dose 0.004 µM) | 87.1% |
| Clc1ccc(Nc2nnc(Cc3ccncc3)c3ccccc23)cc1 [vatalanib] + CN(C)S(=O)(=O)c1ccc2c(c1)/C(=C/c1cc3c([nH]1)CCCC3)C(=O)N2 [SU6656] (first compound 2 µM, partner dose 0.4 µM) | 108% |
| Cn1c(Nc2ccc(C(F)(F)F)cc2)nc2cc(Oc3ccnc(-c4ncc(C(F)(F)F)[nH]4)c3)ccc21 + C[C@@H]1CCN(C(=O)CC#N)C[C@@H]1N(C)c1ncnc2[nH]ccc12 [CP690550] (first compound 0.08 µM, partner dose 1 µM) | 85.3% |
| Cn1c(Nc2ccc(C(F)(F)F)cc2)nc2cc(Oc3ccnc(-c4ncc(C(F)(F)F)[nH]4)c3)ccc21 + Nc1cccc2c1CN(C1CCC(=O)NC1=O)C2=O [lenalidomide] (first compound 0.08 µM, partner dose 1 µM) | 67% |
| Nc1cccc2c1CN(C1CCC(=O)NC1=O)C2=O (stereo unspecified) [lenalidomide] + O=S(=O)(c1ccccc1)N(CC(F)(F)F)c1ccc(C(O)(C(F)(F)F)C(F)(F)F)cc1 [T0901317] (first compound 1 µM, partner dose 1.4 µM) | 67.5% |

From the supplement of paper PMC4604168 (melanoma cell lines)
